Test results taken from the supplement of paper PMC8728848.
This is one part of the list.

Tests used:
Experiment in all cases: glycan array binding signal (z-score within array); higher = stronger binding
Details in all cases: glycan notation: IUPAC condensed, linker removed
[1] = target: GlcNAc(b1-4)GlcNAc(b1-4)GlcNAc(b1-4)GlcNAc(b1-4)GlcNAc(b1-4)GlcNAc
Procedure, shortened: (§1)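 From the Consortium for Functional Glycomics database, 3228 arrays were curated, keeping only those whose protein sequence was available. Binding is given as a within-array Z-score averaged across arrays sharing a protein sequence and across linkers. Negative Z-scores can be read as non-binding.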

[2] = target: GlcNAc(b1-4)[GlcNAc(b1-6)]GalNAc
Procedure, shortened: as §1

[3] = target: GlcNAc(b1-6)Gal(b1-4)GlcNAc
Procedure, shortened: as §1

GlcNAc(b1-6)GalNAc = target: GlcNAc(b1-6)GalNAc
Procedure, shortened: as §1

GlcNAc3Prop(b1-4)GlcNAc = target: GlcNAc3Prop(b1-4)GlcNAc
Procedure, shortened: as §1

Kdn(a2-3)Gal(b1-3)GlcNAc = target: Kdn(a2-3)Gal(b1-3)GlcNAc
Procedure, shortened: as §1

Kdn(a2-3)Gal(b1-4)GlcNAc = target: Kdn(a2-3)Gal(b1-4)GlcNAc
Procedure, shortened: as §1

[4] = target: Man(a1-2)Man(a1-2)Man(a1-3)Man
Procedure, shortened: as §1

[5] = target: Man(a1-2)Man(a1-2)Man(a1-6)[Man(a1-3)]Man
Procedure, shortened: as §1

Man(a1-2)Man(a1-3)Man = target: Man(a1-2)Man(a1-3)Man
Procedure, shortened: as §1

[6] = target: Man(a1-2)Man(a1-3)[Man(a1-2)Man(a1-6)]Man
Procedure, shortened: as §1

[7] = target: Man(a1-2)Man(a1-3)[Man(a1-2)Man(a1-6)]Man(a1-6)[Man(a1-2)Man(a1-2)Man(a1-3)]Man
Procedure, shortened: as §1

[8] = target: Man(a1-2)Man(a1-3)[Man(a1-2)Man(a1-6)]Man(a1-6)[Man(a1-2)Man(a1-2)Man(a1-3)]Man(b1-4)GlcNAc(b1-4)GlcNAc
Procedure, shortened: as §1

[9] = target: Man(a1-2)Man(a1-3)[Man(a1-6)]Man(a1-6)[Man(a1-2)Man(a1-3)]Man(b1-4)GlcNAc(b1-4)GlcNAc
Procedure, shortened: as §1

[10] = target: Man(a1-2)Man(a1-6)[Man(a1-3)]Man(a1-6)[Man(a1-2)Man(a1-2)Man(a1-3)]Man
Procedure, shortened: as §1

[11] = target: Man(a1-2)Man(a1-6)[Man(a1-3)]Man(a1-6)[Man(a1-2)Man(a1-2)Man(a1-3)]Man(b1-4)GlcNAc(b1-4)GlcNAc
Procedure, shortened: as §1

Man(a1-3)[Man(a1-6)]Man = target: Man(a1-3)[Man(a1-6)]Man
Procedure, shortened: as §1

[12] = target: Man(a1-3)[Man(a1-6)]Man(a1-6)[Man(a1-2)Man(a1-3)]Man(b1-4)GlcNAc(b1-4)GlcNAc
Procedure, shortened: as §1

[13] = target: Man(a1-3)[Man(a1-6)]Man(a1-6)[Man(a1-3)]Man
Procedure, shortened: as §1

[14] = target: Man(a1-3)[Man(a1-6)]Man(a1-6)[Man(a1-3)]Man(b1-4)GlcNAc(b1-4)GlcNAc
Procedure, shortened: as §1

[15] = target: Man(a1-3)[Man(a1-6)]Man(b1-4)GlcNAc(b1-4)GlcNAc
Procedure, shortened: as §1

Man(a1-6)Man = target: Man(a1-6)Man
Procedure, shortened: as §1

Man(b1-4)GlcNAc = target: Man(b1-4)GlcNAc
Procedure, shortened: as §1

Neu5Ac(a2-3)Gal = target: Neu5Ac(a2-3)Gal
Procedure, shortened: as §1

[16] = target: Neu5Ac(a2-3)Gal(b1-3)GalNAc
Procedure, shortened: as §1

[17] = target: Neu5Ac(a2-3)Gal(b1-3)GalNAc(b1-3)Gal(a1-4)Gal(b1-4)Glc
Procedure, shortened: as §1

[18] = target: Neu5Ac(a2-3)Gal(b1-3)GalNAc(b1-3)Gal(b1-4)GlcNAc
Procedure, shortened: as §1

[19] = target: Neu5Ac(a2-3)Gal(b1-3)GalNAc(b1-4)[Neu5Ac(a2-3)]Gal(b1-4)Glc
Procedure, shortened: as §1

[20] = target: Neu5Ac(a2-3)Gal(b1-3)GalNAc6S
Procedure, shortened: as §1

[21] = target: Neu5Ac(a2-3)Gal(b1-3)GlcNAc
Procedure, shortened: as §1

[22] = target: Neu5Ac(a2-3)Gal(b1-3)GlcNAc(b1-3)Gal(b1-3)GlcNAc
Procedure, shortened: as §1

[23] = target: Neu5Ac(a2-3)Gal(b1-3)GlcNAc6S
Procedure, shortened: as §1

[24] = target: Neu5Ac(a2-3)Gal(b1-3)[Fuc(a1-4)]GlcNAc
Procedure, shortened: as §1

[25] = target: Neu5Ac(a2-3)Gal(b1-3)[Fuc(a1-4)]GlcNAc(b1-3)Gal(b1-4)[Fuc(a1-3)]GlcNAc
Procedure, shortened: as §1

[26] = target: Neu5Ac(a2-3)Gal(b1-3)[Neu5Ac(a2-3)Gal(b1-4)]GlcNAc
Procedure, shortened: as §1

[27] = target: Neu5Ac(a2-3)Gal(b1-3)[Neu5Ac(a2-6)]GalNAc
Procedure, shortened: as §1

Neu5Ac(a2-3)Gal(b1-4)Glc = target: Neu5Ac(a2-3)Gal(b1-4)Glc
Procedure, shortened: as §1

[28] = target: Neu5Ac(a2-3)Gal(b1-4)GlcNAc
Procedure, shortened: as §1

[29] = target: Neu5Ac(a2-3)Gal(b1-4)GlcNAc(b1-2)Man(a1-3)[GlcNAc(b1-2)Man(b1-4)GlcNAc(b1-2)Man(a1-6)]Man(b1-4)GlcNAc(b1-4)GlcNAc
Procedure, shortened: as §1

[30] = target: Neu5Ac(a2-3)Gal(b1-4)GlcNAc(b1-2)Man(a1-3)[Neu5Ac(a2-3)Gal(b1-4)GlcNAc(b1-2)Man(a1-6)]Man(b1-4)GlcNAc(b1-4)GlcNAc
Procedure, shortened: as §1

[31] = target: Neu5Ac(a2-3)Gal(b1-4)GlcNAc(b1-2)Man(a1-3)[Neu5Ac(a2-6)Gal(b1-4)GlcNAc(b1-2)Man(a1-6)]Man(b1-4)GlcNAc(b1-4)GlcNAc
Procedure, shortened: as §1

[32] = target: Neu5Ac(a2-3)Gal(b1-4)GlcNAc(b1-3)Gal(b1-3)GlcNAc
Procedure, shortened: as §1

[33] = target: Neu5Ac(a2-3)Gal(b1-4)GlcNAc(b1-3)Gal(b1-4)GlcNAc
Procedure, shortened: as §1

[34] = target: Neu5Ac(a2-3)Gal(b1-4)GlcNAc(b1-3)Gal(b1-4)GlcNAc(b1-3)Gal(b1-4)GlcNAc
Procedure, shortened: as §1

[35] = target: Neu5Ac(a2-3)Gal(b1-4)GlcNAc(b1-3)Gal(b1-4)[Fuc(a1-3)]GlcNAc
Procedure, shortened: as §1

[36] = target: Neu5Ac(a2-3)Gal(b1-4)GlcNAc(b1-6)[Gal(b1-3)]GalNAc
Procedure, shortened: as §1

[37] = target: Neu5Ac(a2-3)Gal(b1-4)GlcNAc(b1-6)[Neu5Ac(a2-3)Gal(b1-3)]GalNAc
Procedure, shortened: as §1

B1: E-Selectin (Mus musculus), Q00690 (protein)
chain: MNASRFLSALVFVLLAGESTAWYYNASSELMTYDEASAYCQRDYTHLVAIQNKEEINYLNSNLKHSPSYYWIGIRKVNNVWIWVGTGKPLTEEAQNWAPGEPNNKQRNEDCVEIYIQRTKDSGMWNDERCNKKKLALCYTASCTNASCSGHGECIETINSYTCKCHPGFLGPNCEQAVTCKPQEHPDYGSLNCSHPFGPFSYNSSCSFGCKRGYLPSSMETTVRCTSSGEWSAPAPACHVVECEALTHPAHGIRKCSSNPGSYPWNTTCTFDCVEGYRRVGAQNLQCTSSGIWDNETPSCKAVTCDAIPQPQNGFVSCSHSTAGELAFKSSCNFTCEQSFTLQGPAQVECSAQGQWTPQIPVCKAVQCEALSAPQQGNMKCLPSASGPFQNGSSCEFSCEEGFELKGSRRLQCGPRGEWDSKKPTCSAVKCDDVPRPQNGVMECAHATTGEFTYKSSCAFQCNEGFSLHGSAQLECTSQGKWTQEVPSCQVVQCPSLDVPGKMNMSCSGTAVFGTVCEFTCPDDWTLNGSAVLTCGATGRWSGMPPTCEAPVSPTRPLVVALSAAGTSLLTSSSLLYLLMRYFRKKAKKFVPASSCQSLQSFENYHVPSYNV
glycan array binding signal (z-score) [1]: -0.365 | glycan array binding signal (z-score) [2]: -0.316 | glycan array binding signal (z-score) [3]: -0.344 | glycan array binding signal (z-score) (GlcNAc(b1-6)GalNAc): -0.272 | glycan array binding signal (z-score) (GlcNAc3Prop(b1-4)GlcNAc): -0.301 | glycan array binding signal (z-score) (Kdn(a2-3)Gal(b1-3)GlcNAc): -0.32 | glycan array binding signal (z-score) (Kdn(a2-3)Gal(b1-4)GlcNAc): -0.305 | glycan array binding signal (z-score) [4]: -0.313 | glycan array binding signal (z-score) [5]: -0.228 | glycan array binding signal (z-score) (Man(a1-2)Man(a1-3)Man): -0.253 | glycan array binding signal (z-score) [6]: -0.348 | glycan array binding signal (z-score) [7]: -0.241 | glycan array binding signal (z-score) [8]: -0.28 | glycan array binding signal (z-score) [9]: -0.332 | glycan array binding signal (z-score) [10]: -0.377 | glycan array binding signal (z-score) [11]: -0.303 | glycan array binding signal (z-score) (Man(a1-3)[Man(a1-6)]Man): -0.314 | glycan array binding signal (z-score) [12]: -0.321 | glycan array binding signal (z-score) [13]: -0.284 | glycan array binding signal (z-score) [14]: -0.268 | glycan array binding signal (z-score) [15]: -0.288 | glycan array binding signal (z-score) (Man(a1-6)Man): -0.287 | glycan array binding signal (z-score) (Man(b1-4)GlcNAc): -0.317 | glycan array binding signal (z-score) (Neu5Ac(a2-3)Gal): -0.277 | glycan array binding signal (z-score) [16]: -0.313 | glycan array binding signal (z-score) [17]: -0.321 | glycan array binding signal (z-score) [18]: -0.138 | glycan array binding signal (z-score) [19]: -0.283 | glycan array binding signal (z-score) [20]: -0.269 | glycan array binding signal (z-score) [21]: -0.304 | glycan array binding signal (z-score) [22]: -0.307 | glycan array binding signal (z-score) [23]: -0.346 | glycan array binding signal (z-score) [24]: 4.47 | glycan array binding signal (z-score) [25]: 3.01 | glycan array binding signal (z-score) [26]: -0.289 | glycan array binding signal (z-score) [27]: -0.304 | glycan array binding signal (z-score) (Neu5Ac(a2-3)Gal(b1-4)Glc): -0.199 | glycan array binding signal (z-score) [28]: -0.333 | glycan array binding signal (z-score) [29]: -0.068 | glycan array binding signal (z-score) [30]: -0.203 | glycan array binding signal (z-score) [31]: -0.271 | glycan array binding signal (z-score) [32]: -0.113 | glycan array binding signal (z-score) [33]: -0.153 | glycan array binding signal (z-score) [34]: -0.184 | glycan array binding signal (z-score) [35]: -0.278 | glycan array binding signal (z-score) [36]: -0.332 | glycan array binding signal (z-score) [37]: -0.24
